# The list shows a part of the results.
# B1: CCL2 (Coprinopsis cinerea), B3GA02 (protein)
# chain: MDSPAVTLSAGNYIIYNRVLSPRGEKLALTYPGRQRTPVTVSPLDGSSEQAWILRSYDSNSNTWTISPVGSPNSQIGWGAGNVPVVLPPNNYVWTLTLTSGGYNIQDGKRTVSWSLNNATAGEEVSIGADATFSGRWVIEKV
# Tests used:
# Assay in all cases: glycan array binding signal (z-score within array); higher = stronger binding
# Details in all cases: glycan notation: IUPAC condensed, linker removed
# [1] = target: Neu5Ac(a2-3)Gal(b1-4)GlcNAc
# Summary of the method: (§1)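 Columns mapping to the same glycan were averaged after glycan names were converted to IUPAC-condensed notation. The data come from 3228 arrays in the Consortium for Functional Glycomics database, limited to those with an available protein sequence. Binding is reported as a within-array Z-score averaged across arrays of one protein sequence and across linkers.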
# [2] = target: Neu5Ac(a2-3)Gal(b1-4)GlcNAc(b1-2)Man(a1-3)[GlcNAc(b1-2)Man(b1-4)GlcNAc(b1-2)Man(a1-6)]Man(b1-4)GlcNAc(b1-4)GlcNAc
# Summary of the method: as §1
# [3] = target: Neu5Ac(a2-3)Gal(b1-4)GlcNAc(b1-2)Man(a1-3)[Neu5Ac(a2-6)Gal(b1-4)GlcNAc(b1-2)Man(a1-6)]Man(b1-4)GlcNAc(b1-4)GlcNAc
# Summary of the method: as §1
# [4] = target: Neu5Ac(a2-3)Gal(b1-4)GlcNAc(b1-3)Gal(b1-3)GlcNAc
# Summary of the method: as §1
# [5] = target: Neu5Ac(a2-3)Gal(b1-4)GlcNAc(b1-3)Gal(b1-4)GlcNAc
# Summary of the method: as §1
# [6] = target: Neu5Ac(a2-3)Gal(b1-4)GlcNAc(b1-3)Gal(b1-4)GlcNAc(b1-3)Gal(b1-4)GlcNAc
# Summary of the method: as §1
# [7] = target: Neu5Ac(a2-3)Gal(b1-4)GlcNAc(b1-3)Gal(b1-4)[Fuc(a1-3)]GlcNAc
# Summary of the method: as §1
# [8] = target: Neu5Ac(a2-3)Gal(b1-4)GlcNAc(b1-3)GalNAc
# Summary of the method: as §1
# [9] = target: Neu5Ac(a2-3)Gal(b1-4)GlcNAc(b1-6)[Gal(b1-3)]GalNAc
# Summary of the method: as §1
# [10] = target: Neu5Ac(a2-3)Gal(b1-4)GlcNAc(b1-6)[Neu5Ac(a2-3)Gal(b1-3)]GalNAc
# Summary of the method: as §1
# [11] = target: Neu5Ac(a2-3)Gal(b1-4)GlcNAc6S
# Summary of the method: as §1
# [12] = target: Neu5Ac(a2-3)Gal(b1-4)[Fuc(a1-3)]GlcNAc
# Summary of the method: as §1
# [13] = target: Neu5Ac(a2-3)Gal(b1-4)[Fuc(a1-3)]GlcNAc(b1-3)Gal
# Summary of the method: as §1
# [14] = target: Neu5Ac(a2-3)Gal(b1-4)[Fuc(a1-3)]GlcNAc(b1-3)Gal(b1-4)GlcNAc
# Summary of the method: as §1
# [15] = target: Neu5Ac(a2-3)Gal(b1-4)[Fuc(a1-3)]GlcNAc(b1-3)Gal(b1-4)[Fuc(a1-3)]GlcNAc(b1-3)Gal(b1-4)[Fuc(a1-3)]GlcNAc
# Summary of the method: as §1
# [16] = target: Neu5Ac(a2-3)Gal(b1-4)[Fuc(a1-3)]GlcNAc(b1-3)GalNAc
# Summary of the method: as §1
# [17] = target: Neu5Ac(a2-3)Gal(b1-4)[Fuc(a1-3)]GlcNAc(b1-6)[Gal(b1-3)]GalNAc
# Summary of the method: as §1
# [18] = target: Neu5Ac(a2-3)Gal(b1-4)[Fuc(a1-3)]GlcNAc(b1-6)[Neu5Ac(a2-3)Gal(b1-3)]GalNAc
# Summary of the method: as §1
# [19] = target: Neu5Ac(a2-3)Gal(b1-4)[Fuc(a1-3)]GlcNAc6S
# Summary of the method: as §1
# [20] = target: Neu5Ac(a2-3)Gal6S(b1-4)GlcNAc
# Summary of the method: as §1
# [21] = target: Neu5Ac(a2-3)Gal6S(b1-4)[Fuc(a1-3)]GlcNAc
# Summary of the method: as §1
# [22] = target: Neu5Ac(a2-3)GalNAc
# Summary of the method: as §1
# [23] = target: Neu5Ac(a2-3)GalNAc(b1-4)GlcNAc
# Summary of the method: as §1
# [24] = target: Neu5Ac(a2-3)[GalNAc(b1-4)]Gal(b1-4)Glc
# Summary of the method: as §1
# [25] = target: Neu5Ac(a2-3)[GalNAc(b1-4)]Gal(b1-4)GlcNAc
# Summary of the method: as §1
# [26] = target: Neu5Ac(a2-3)[Neu5Ac(a2-6)]GalNAc
# Summary of the method: as §1
# [27] = target: Neu5Ac(a2-6)Gal
# Summary of the method: as §1
# [28] = target: Neu5Ac(a2-6)Gal(b1-4)Glc
# Summary of the method: as §1
# [29] = target: Neu5Ac(a2-6)Gal(b1-4)GlcNAc
# Summary of the method: as §1
# [30] = target: Neu5Ac(a2-6)Gal(b1-4)GlcNAc(b1-2)Man(a1-3)Man(b1-4)GlcNAc(b1-4)GlcNAc
# Summary of the method: as §1
# [31] = target: Neu5Ac(a2-6)Gal(b1-4)GlcNAc(b1-2)Man(a1-3)[Gal(b1-4)GlcNAc(b1-2)Man(a1-6)]Man(b1-4)GlcNAc(b1-4)GlcNAc
# Summary of the method: as §1
# [32] = target: Neu5Ac(a2-6)Gal(b1-4)GlcNAc(b1-2)Man(a1-3)[GlcNAc(b1-2)Man(a1-6)]Man(b1-4)GlcNAc(b1-4)GlcNAc
# Summary of the method: as §1
# [33] = target: Neu5Ac(a2-6)Gal(b1-4)GlcNAc(b1-2)Man(a1-3)[GlcNAc(b1-2)Man(b1-4)GlcNAc(b1-2)Man(a1-6)]Man(b1-4)GlcNAc(b1-4)GlcNAc
# Summary of the method: as §1
# [34] = target: Neu5Ac(a2-6)Gal(b1-4)GlcNAc(b1-2)Man(a1-3)[Man(a1-6)]Man(b1-4)GlcNAc(b1-4)GlcNAc
# Summary of the method: as §1
# [35] = target: Neu5Ac(a2-6)Gal(b1-4)GlcNAc(b1-2)Man(a1-3)[Neu5Ac(a2-6)Gal(b1-4)GlcNAc(b1-2)Man(a1-6)]Man(b1-4)GlcNAc(b1-4)GlcNAc
# Summary of the method: as §1
# [36] = target: Neu5Ac(a2-6)Gal(b1-4)GlcNAc(b1-2)Man(a1-6)Man(b1-4)GlcNAc(b1-4)GlcNAc
# Summary of the method: as §1
# [37] = target: Neu5Ac(a2-6)Gal(b1-4)GlcNAc(b1-2)Man(a1-6)[Gal(b1-4)GlcNAc(b1-2)Man(a1-3)]Man(b1-4)GlcNAc(b1-4)GlcNAc
# Summary of the method: as §1
# [38] = target: Neu5Ac(a2-6)Gal(b1-4)GlcNAc(b1-2)Man(a1-6)[GlcNAc(b1-2)Man(a1-3)]Man(b1-4)GlcNAc(b1-4)GlcNAc
# Summary of the method: as §1
# [39] = target: Neu5Ac(a2-6)Gal(b1-4)GlcNAc(b1-2)Man(a1-6)[Man(a1-3)]Man(b1-4)GlcNAc(b1-4)GlcNAc
# Summary of the method: as §1
# [40] = target: Neu5Ac(a2-6)Gal(b1-4)GlcNAc(b1-3)Gal(b1-3)GlcNAc
# Summary of the method: as §1
# [41] = target: Neu5Ac(a2-6)Gal(b1-4)GlcNAc(b1-3)Gal(b1-4)GlcNAc
# Summary of the method: as §1
# [42] = target: Neu5Ac(a2-6)Gal(b1-4)GlcNAc(b1-3)Gal(b1-4)GlcNAc(b1-3)Gal(b1-4)GlcNAc
# Summary of the method: as §1
# [43] = target: Neu5Ac(a2-6)Gal(b1-4)GlcNAc(b1-3)Gal(b1-4)[Fuc(a1-3)]GlcNAc(b1-3)Gal(b1-4)[Fuc(a1-3)]GlcNAc
# Summary of the method: as §1
# [44] = target: Neu5Ac(a2-6)Gal(b1-4)GlcNAc(b1-3)GalNAc
# Summary of the method: as §1
# [45] = target: Neu5Ac(a2-6)Gal(b1-4)GlcNAc6S
# Summary of the method: as §1
binder,measurement,setting,value
B1,glycan array binding signal (z-score),[1],-0.279
same,glycan array binding signal (z-score),[2],-0.264
same,glycan array binding signal (z-score),[3],-0.281
same,glycan array binding signal (z-score),[4],-0.256
same,glycan array binding signal (z-score),[5],-0.284
same,glycan array binding signal (z-score),[6],-0.269
same,glycan array binding signal (z-score),[7],-0.272
same,glycan array binding signal (z-score),[8],-0.227
same,glycan array binding signal (z-score),[9],-0.281
same,glycan array binding signal (z-score),[10],-0.27
same,glycan array binding signal (z-score),[11],-0.265
same,glycan array binding signal (z-score),[12],3.74
same,glycan array binding signal (z-score),[13],5.39
same,glycan array binding signal (z-score),[14],4.93
same,glycan array binding signal (z-score),[15],4.19
same,glycan array binding signal (z-score),[16],0.012
same,glycan array binding signal (z-score),[17],4.04
same,glycan array binding signal (z-score),[18],4.17
same,glycan array binding signal (z-score),[19],4.45
same,glycan array binding signal (z-score),[20],4.88
same,glycan array binding signal (z-score),[21],4.18
same,glycan array binding signal (z-score),[22],-0.29
same,glycan array binding signal (z-score),[23],-0.294
same,glycan array binding signal (z-score),[24],-0.269
same,glycan array binding signal (z-score),[25],-0.278
same,glycan array binding signal (z-score),[26],-0.263
same,glycan array binding signal (z-score),[27],-0.289
same,glycan array binding signal (z-score),[28],-0.29
same,glycan array binding signal (z-score),[29],-0.284
same,glycan array binding signal (z-score),[30],-0.274
same,glycan array binding signal (z-score),[31],-0.276
same,glycan array binding signal (z-score),[32],-0.279
same,glycan array binding signal (z-score),[33],-0.266
same,glycan array binding signal (z-score),[34],-0.288
same,glycan array binding signal (z-score),[35],-0.248
same,glycan array binding signal (z-score),[36],-0.293
same,glycan array binding signal (z-score),[37],-0.278
same,glycan array binding signal (z-score),[38],-0.277
same,glycan array binding signal (z-score),[39],-0.294
same,glycan array binding signal (z-score),[40],-0.283
same,glycan array binding signal (z-score),[41],-0.294
same,glycan array binding signal (z-score),[42],-0.262
same,glycan array binding signal (z-score),[43],1.94
same,glycan array binding signal (z-score),[44],0.358
same,glycan array binding signal (z-score),[45],-0.205

# From the supplement of paper PMC8728848
